Laboratory results published in PubChem BioAssay (NCATS).
Values joined by “and” are separate entries in the source; they are usually repeats but may differ in a detail not shown here. Equal entries are not always repeated. Inconclusive means that the source gave no clear call. Such entries were picked first, then a sample of the others. For some assays here: Where the call is inconclusive, the potency comes from a doubtful curve fit. Active and inactive are the calls of the source. Unless noted, calls come from the whole dose curve; as a rule, active = well fitted curve in the direction sought with a large enough effect; inconclusive = small, poorly fitted or top-dose-only effect, or another doubt; inactive = no such curve, though single readings can be large; an effect the other way counts as inactive or inconclusive.

How the values were obtained:
[1] = P-glycoprotein substrates identified in KB-8-5-11 adenocarcinoma cell line, qHTS therapeutic library screen (AID 1346987); note: potency is the fitted concentration of half-maximal effect; nearly all actives have a fitted effect of over 65% in size
Method in brief: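 In this qHTS, P-gp-rich KB-8-5-11 cells received library compounds across a concentration range. Viability was quantified by luminescence after 72 h at 37 degree C.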

[2] = qHTS of pediatric cancer cell lines to identify multiple opportunities for drug repurposing: Primary screen for Rh41 cells (AID 1347108); note: potency is the fitted concentration of half-maximal effect; nearly all actives have a fitted effect of over 70% in size
Method in brief: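 Phenotypic viability qHTS, 48 h compound exposure, CellTiter-Glo luminescence read-out; multi-concentration dosing so that potency and efficacy derive directly from the primary screen's curves.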

[3] = Primary qHTS for inhibitors of nuclear receptor binding SET domain protein 2 (NSD2) in an isogenic RCH-ACV NSD2 p.E1099K mutant (9B) (AID 1645876); note: potency is the fitted concentration of half-maximal effect; nearly all actives have a fitted effect of over 70% in size
[4] = Primary qHTS for inhibitors of nuclear receptor binding SET domain protein 2 (NSD2) in an RCH-ACV wild type WT cells (2C) (AID 1645877); conditions: activity change, negative = cell killing: at 44.9 µM (top of the series) unless noted; note: nearly all actives have a fitted effect of over 70% in size; note: potency is the fitted concentration of half-maximal effect
[5] = test system: HaCat; assay: Cytotoxic Profiling of Annotated Libraries Using Quantitative High-Throughput Screening (AID 1296008); conditions: Five cell lines viability, CellTiter-Glo ATP luminescence, 48-72 h; max response: stronger effect = lower value; note: nearly all actives have a fitted effect of over 60% in size; note: potency is the fitted concentration of half-maximal effect; for max response: % is set by controls: 0 for no effect and ±100 for the full control effect
Method in brief: (§1)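 Cells exposed to compounds for 48 or 72 hr at 37 degrees Celsius. Viability read as ATP-coupled luminescence with CellTiter-Glo after 10 min at room temperature.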

[6] = test system: C33A; assay: Primary qHTS to identify gynecologic anti-cancer compounds using libraries of approved drugs and bioactive compounds (AID 1345084); conditions: Gynecologic cancer cell panel viability, ATPlite luminescence, 48 h; series mostly up to 57.5 µM; note: nearly all actives have a fitted effect of over 55% in size; note: potency is the fitted concentration of half-maximal effect; for activity change, negative = cytotoxicity: % is set by controls: 0 for no effect and ±100 for the full control effect
Method in brief: (§2)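 Luminescence from the ATPlite ATP-monitoring reagent indicates viable cell number; lower signal means cytotoxicity. Cells received compound 16 h after seeding and were exposed for 48 h across five concentrations.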

[7] = test system: CAOV3; assay: as above; conditions: Gynecologic cancer cell panel viability, ATPlite luminescence, 48 h; activity change, negative = cytotoxicity: at 57.5 µM (top of the series)
Method in brief: as §2

[8] = test system: CASKI; assay: as above; conditions: Gynecologic cancer cell panel viability, ATPlite luminescence, 48 h; series mostly up to 57.5 µM
Method in brief: as §2

[9] = test system: Es-2; assay: as above; conditions: Gynecologic cancer cell panel viability, ATPlite luminescence, 48 h; series mostly up to 57.5 µM
Method in brief: as §2

[10] = test system: HeLa; assay: as above; conditions: Gynecologic cancer cell panel viability, ATPlite luminescence, 48 h; activity change, negative = cytotoxicity: at 57.5 µM (top of the series)
Method in brief: as §2

[11] = test system: Hek293T; assay: as above; conditions: Gynecologic cancer cell panel viability, ATPlite luminescence, 48 h, control line for the selectivity index; activity change, negative = cytotoxicity: at 57.5 µM (top of the series) unless noted
Method in brief: as §2

[12] = test system: OV90; assay: as above; conditions: Gynecologic cancer cell panel viability, ATPlite luminescence, 48 h; series mostly up to 57.5 µM
Method in brief: as §2

[13] = test system: PA-1; assay: as above; conditions: Gynecologic cancer cell panel viability, ATPlite luminescence, 48 h; series mostly up to 57.5 µM
Method in brief: as §2

[14] = test system: SKOV3; assay: as above; conditions: Gynecologic cancer cell panel viability, ATPlite luminescence, 48 h; series mostly up to 57.5 µM
Method in brief: as §2

[15] = test system: Tov-21-G; assay: as above; conditions: Gynecologic cancer cell panel viability, ATPlite luminescence, 48 h; activity change, negative = cytotoxicity: at 57.5 µM (top of the series) unless noted
Method in brief: as §2

[16] = test system: Tov112D; assay: as above; conditions: Gynecologic cancer cell panel viability, ATPlite luminescence, 48 h; series mostly up to 57.5 µM
Method in brief: as §2

[17] = test system: KB-3-1; assay: Cytotoxic Profiling of Annotated Libraries Using Quantitative High-Throughput Screening (AID 1296008); conditions: Five cell lines viability, CellTiter-Glo ATP luminescence, 48-72 h; max response: stronger effect = lower value; note: nearly all actives have a fitted effect of over 60% in size; note: potency is the fitted concentration of half-maximal effect; for max response: % is set by controls: 0 for no effect and ±100 for the full control effect
Method in brief: as §1

[18] = Primary fluorescence-based thiol-reactive (MSTI) qHTS assay for identification of artifact compounds. (AID 1845221);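 note: potency is the fitted concentration of half-maximal effect; thiol-reactive compounds lower the probe fluorescence signal; nearly all actives have a fitted effect of over 65% in size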
Method in brief: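 Compounds were incubated 1 h at room temperature in the dark with the MSTI probe (4 uM) in PBS pH 7.4, 2% DMSO. Signals were normalized between Acetyl-MSTI and MSTI.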

[19] = test system: NIH3T3; assay: Cytotoxic Profiling of Annotated Libraries Using Quantitative High-Throughput Screening (AID 1296008); conditions: Five cell lines viability, CellTiter-Glo ATP luminescence, 48-72 h; max response: stronger effect = lower value; note: nearly all actives have a fitted effect of over 60% in size; note: potency is the fitted concentration of half-maximal effect; for max response: % is set by controls: 0 for no effect and ±100 for the full control effect
Method in brief: as §1

[20] = target: Cytochrome P450 2D6 (Homo sapiens) (UniProt P10635); assay: Cytochrome P450 family 2 subfamily D member 6 (CYP2D6) small molecule antagonists: luciferase biochemical (cell-free) qHTS assay (AID 1645840; active = well fitted curve in the direction sought with a large enough effect in the repeat runs; inconclusive = weak or mixed curves; inactive = no such curve, though single readings can be large; an effect the other way counts as inactive or inconclusive; note: % is set by controls: 0 for no effect and ±100 for the full control effect; nearly all actives have a fitted effect of over 55% in size)
UniProt P10635, sequence (P10635 whole entry, looked up): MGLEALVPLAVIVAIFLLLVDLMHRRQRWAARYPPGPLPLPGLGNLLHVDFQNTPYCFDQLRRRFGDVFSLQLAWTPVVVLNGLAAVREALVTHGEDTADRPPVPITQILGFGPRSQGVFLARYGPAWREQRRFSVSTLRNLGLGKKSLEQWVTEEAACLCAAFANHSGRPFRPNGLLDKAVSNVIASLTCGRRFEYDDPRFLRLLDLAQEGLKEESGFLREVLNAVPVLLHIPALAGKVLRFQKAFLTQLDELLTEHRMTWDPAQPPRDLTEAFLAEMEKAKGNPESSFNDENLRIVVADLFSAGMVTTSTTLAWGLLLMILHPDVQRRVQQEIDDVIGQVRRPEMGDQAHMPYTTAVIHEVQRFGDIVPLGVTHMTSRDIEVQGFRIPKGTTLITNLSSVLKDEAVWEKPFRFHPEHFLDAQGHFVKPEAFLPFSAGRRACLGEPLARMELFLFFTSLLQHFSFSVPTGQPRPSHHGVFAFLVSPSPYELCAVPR
Method in brief: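 P450-Glo CYP2D6 system: proluciferin substrate converted by enzyme to luciferin, read by luminescence proportional to activity. Enzyme-substrate mix with compound 10 min at room temperature, then NADPH regeneration 1 h before detection reagent.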
Tags give direction and shape of the fitted curve.

Cn1cc(C2=C(c3c4n(c5ccccc35)CCC(CN)C4)C(=O)NC2=O)c2ccccc21 (configuration not stated)
Potency [1]: inconclusive: 33.2 µM [inhibitor, single point]
Potency [2]: active: 23.5 µM
Potency [3]: inconclusive: 3.82 µM [inhibitor, partial curve]
Potency [4]: inconclusive: 5.39 µM [inhibitor, partial curve]
Potency [5]: active: 37.2 µM

COc1ccc2cc3[n+](cc2c1OC)CCc1cc2c(cc1-3)OCO2
Potency [2]: inconclusive: 10.6 µM [cytotoxic, partial curve, poor fit] and inconclusive: 1.87 µM [cytotoxic, partial curve]
Potency [3]: active: 11.9 µM and active: 5.9 µM
Potency [5]: inconclusive: 13.3 µM [inhibitor, partial curve] and inconclusive: 37.2 µM [inhibitor, single point]
Potency [6]: active: 8.91 µM
Potency [7]: inconclusive: 10 µM [cytotoxic, partial curve, poor fit]
Potency [8]: active: 2.24 µM
Potency [9]: active: 15.8 µM
Potency [10]: inconclusive: 20 µM [cytotoxic, partial curve, poor fit]
Potency [11]: inconclusive: 10 µM [cytotoxic, partial curve]
Potency [12]: active: 5.62 µM
Potency [13]: inconclusive: 1.78 µM [cytotoxic, full curve, poor fit]
Potency [14]: inconclusive: 39.8 µM [cytotoxic, single point]
Potency [15]: inactive
Potency [16]: inconclusive: 28.2 µM [cytotoxic, partial curve]

CC1(C)N=C(N)N=C(N)N1c1ccc(Cl)cc1
Potency [17]: inconclusive: 29.1 µM [inhibitor, single point]

CCc1c2c(nc3ccc(O)cc13)-c1cc3c(c(=O)n1C2)COC(=O)[C@]3(O)CC
Potency [1]: active: 231 nM and inconclusive: 469 nM [inhibitor, full curve]
Potency [2]: active: 0.235 µM
Potency [18]: inconclusive: 7.52 µM [inhibitor, full curve]
Potency [17]: active: 291 nM and active: 235 nM
Potency [19]: inconclusive: 0.0526 µM [inhibitor, full curve]
Potency [6]: inconclusive: 0.1 µM [cytotoxic, full curve, poor fit]
Potency [7]: active: 0.251 µM
Potency [8]: active: 0.126 µM
Potency [9]: inconclusive: 0.316 µM
Potency [10]: inconclusive: 0.447 µM [cytotoxic, full curve]
Potency [11]: active: 0.891 µM
Potency [12]: active: 1.78 µM
Potency [13]: inconclusive: 0.0282 µM
Potency [14]: inconclusive: 1.58 µM [cytotoxic, partial curve, poor fit]
Potency [15]: active: 3.16 µM
Potency [16]: inconclusive: 0.0126 µM

Cc1onc(C(=O)N2CCN(C(c3ccc(Cl)cc3)c3ccc(Cl)cc3)CC2)c1[N+](=O)[O-]
Potency [1]: inconclusive: 18.4 µM [inhibitor, partial curve]
Potency [20]: inactive
Potency [3]: active: 0.23 µM
Potency [18]: inconclusive: 2.99 µM [inhibitor, single point]
max response [5]: inactive: 0.662%
Potency [6]: inconclusive: 3.55 µM [cytotoxic, full curve]
Potency [7]: active: 2.24 µM
Potency [9]: active: 1 µM
Potency [13]: active: 8.91 µM
Potency [14]: active: 7.94 µM
Potency [15]: active: 1.12 µM
Potency [16]: active: 7.94 µM

Cc1cnn(C)c1C(=O)Nc1cc(Nc2ccc3c(C=Cc4ccccn4)n[nH]c3c2)ccc1F
Potency [1]: active: 5.26 µM
Potency [2]: inconclusive: 18.7 µM [cytotoxic, partial curve]
Potency [5]: inconclusive: 37.2 µM [inhibitor, single point]

CC1(C)OC[C@@H]2O[C@@]3(C(=O)O)OC(C)(C)O[C@H]3[C@@H]2O1
Potency [3]: inconclusive: 21.1 µM [inhibitor, single point]
Potency [4]: inconclusive: 26.6 µM [inhibitor, single point]
Potency [5]: inconclusive: 23.7 µM [inhibitor, partial curve, poor fit]
Potency [7]: inconclusive: 3.98 µM [cytotoxic, partial curve, poor fit]
Potency [14]: inactive

O=C(O)CCNC(=O)c1ccccc1
Potency [4]: inactive
Potency [5]: inconclusive: 29.9 µM [inhibitor, single point]
Potency [12]: inactive

CCCNC(=O)[C@H]1O[C@H]1C(=O)N[C@H](C(=O)N1CCC[C@@H]1C(=O)OC)C(C)CC (some centres not stated)
Potency [2]: active: 7.43 µM
Potency [17]: inconclusive: 33.2 µM [inhibitor, single point]
Potency [19]: inconclusive: 37.2 µM [inhibitor, single point]
